Source: publication PMC4336329 (PLoS ONE, 2015)
Screen size: about 310,000 compounds; about 2,200 (0.71%) showed an effect of 50% or more. The effect is printed as a negative number. Some of the results follow.

Each molecule was assayed against human ether-à-go-go-related gene (hERG) potassium channel (human, UniProt Q12809) (assay: primary screen, population patch clamp on CHO cells stably expressing hERG).
Sequence of human ether-à-go-go-related gene (hERG) potassium channel (Q12809 whole entry, looked up): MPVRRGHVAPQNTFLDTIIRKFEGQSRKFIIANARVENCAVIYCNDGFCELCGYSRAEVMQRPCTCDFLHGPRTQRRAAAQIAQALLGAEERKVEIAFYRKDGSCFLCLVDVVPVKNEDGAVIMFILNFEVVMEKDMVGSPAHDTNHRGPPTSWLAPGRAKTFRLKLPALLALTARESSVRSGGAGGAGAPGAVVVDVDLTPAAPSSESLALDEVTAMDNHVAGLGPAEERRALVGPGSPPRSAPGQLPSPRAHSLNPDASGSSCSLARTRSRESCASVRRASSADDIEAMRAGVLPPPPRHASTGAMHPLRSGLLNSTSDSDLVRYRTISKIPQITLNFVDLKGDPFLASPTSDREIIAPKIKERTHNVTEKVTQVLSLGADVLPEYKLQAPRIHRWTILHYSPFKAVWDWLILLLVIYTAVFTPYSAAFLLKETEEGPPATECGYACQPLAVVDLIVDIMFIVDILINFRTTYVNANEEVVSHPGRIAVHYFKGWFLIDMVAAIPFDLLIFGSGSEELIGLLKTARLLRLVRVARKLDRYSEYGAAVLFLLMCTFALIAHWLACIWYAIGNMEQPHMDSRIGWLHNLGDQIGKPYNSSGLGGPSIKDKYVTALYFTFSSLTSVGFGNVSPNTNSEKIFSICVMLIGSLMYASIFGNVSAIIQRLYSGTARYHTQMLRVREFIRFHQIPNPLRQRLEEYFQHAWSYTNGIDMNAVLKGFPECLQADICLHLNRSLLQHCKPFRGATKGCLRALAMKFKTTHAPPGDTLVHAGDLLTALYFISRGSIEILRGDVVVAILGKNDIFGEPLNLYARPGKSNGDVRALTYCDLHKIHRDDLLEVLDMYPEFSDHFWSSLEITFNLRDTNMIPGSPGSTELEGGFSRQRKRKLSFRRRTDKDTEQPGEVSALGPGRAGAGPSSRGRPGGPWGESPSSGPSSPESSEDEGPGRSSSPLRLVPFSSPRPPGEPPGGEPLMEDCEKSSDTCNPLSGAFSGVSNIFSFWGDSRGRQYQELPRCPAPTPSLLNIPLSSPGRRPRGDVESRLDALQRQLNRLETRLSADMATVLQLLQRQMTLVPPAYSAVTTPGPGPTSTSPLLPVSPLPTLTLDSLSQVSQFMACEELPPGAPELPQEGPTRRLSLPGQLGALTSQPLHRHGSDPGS

Row | Compound | hERG current change (%, negative = inhibition) at 1uM [%]
1 | O=C(O)C1CCC(=O)N(C2CCCCC2)C1c1ccccc1 (stereo not drawn) | 6.56
2 | C=CCNC(=O)c1cccn1-c1ccsc1C(=O)OC | 1.79
3 | Cc1c2cnn(CC(=O)N3CCC4(CC3)OCCO4)c(=O)c2c(C)n1Cc1ccccc1Cl | 10.2
4 | CCCc1cc(C(=O)N2CCCC(Cc3ccccc3C)(C(=O)OCC)C2)no1 (stereo not drawn) | 1.33
5 | CC(C)=NOc1nc(N(C)C)nc(N(C)C)n1 | 7.45
6 | O=C(NCC1CC1)[C@]1(C(F)(F)F)C[C@H](CCC2CCCCC2)CCCO1 | 12.3
7 | COc1cc(/C=C(/C(=O)c2cccs2)c2nc3ccccc3[nH]2)cc(OC)c1O | -3.89
8 | CC(C)c1cc(CNC(=O)CC2C(=O)NCCN2CC2CCCCC2)on1 (stereo not drawn) | 11.9
9 | Cc1ccc(S(=O)(=O)N2CCN(CC(=O)N/N=C\c3ccccn3)CC2)cc1 | -4.83
10 | CCCCn1c(N)c(N(CCOC)C(=O)C(C)N2C(=O)c3ccccc3C2=O)c(=O)[nH]c1=O (stereo not drawn) | 19.1
11 | CCc1nc(-c2ccccc2)cc(=O)[nH]1 | 8.41
12 | COc1cc(CN(C)Cc2cc(=O)oc3cc(C)c(Cl)cc23)ccc1OC(F)F | 11.1
13 | O=C(NCCC1CCCCN1S(=O)(=O)c1ccccc1)C(=O)NCc1cccnc1 (stereo not drawn) | 8.76
14 | O=C(Cc1cccs1)N(c1ccc(F)cc1)C1(C(=O)NC2CCCCC2)CCCC1 | 2.72
15 | Cc1cccc(NC(=O)C2CC(=O)N(Cc3ccccc3)C2)n1 (stereo not drawn) | 14
16 | CCCn1c(SCC(=O)Nc2nc(-c3ccc(OC)cc3)cs2)nc2c1c(=O)n(C)c(=O)n2C | 11.2
17 | COc1ccc(C)cc1N/C(N)=N/c1nc(C)cc(C)n1 | -64.7
18 | Cc1cccc(N2CCN(C(=O)Cn3cccc3C(=O)c3ccccc3)CC2)c1C | 12.2
19 | COc1ccc(Nc2nnc(C)c3ccccc23)cc1C(N)=O | 16.1
20 | CCc1noc2c1/C(=N\O)CC(c1ccccc1)C2 (stereo not drawn) | 4.04
21 | COc1ccc(N2CCOCC2)c(NC(=O)c2ccco2)c1 | -41.5
22 | COc1cc(CNCCCCO)ccc1OCc1ccccc1F.Cl | 2.85

Row | Compound | hERG current change (%, negative = inhibition) at 1uM [%]
23 | Clc1ccc(-c2nc3nc4ccccc4nc3n2Cc2ccco2)cc1 | -0.148
24 | Cc1cc(C)n2c(SCc3ccc(C#N)cc3)nnc2n1 | -0.405
25 | COc1cc(C2NC(=O)NC(C)=C2C(=O)OCC2CCCCC2)cc(Cl)c1O (stereo not drawn) | 9.92
26 | O=S1(=O)N=C(N2CCCc3ccccc32)c2ccccc21 | -6.76
27 | COCCCn1c(SCC(=O)Nc2ccc(C(=O)OC)cc2)nc2ccccc2c1=O | -22.3
28 | O=C(NCc1ccco1)N1c2ccccc2Sc2ccccc21 | 11.5
29 | C/C(=N/NC(=O)CSc1nc2ccccc2n1C)c1ccncc1 | 21.7
30 | CCOC(=O)C(NC(=O)c1ccc(OC)cc1)(N1CCOCC1)C(F)(F)F (stereo not drawn) | 6.95
31 | NC(=O)N/N=C(/CCCCCC/C(=N\NC(N)=O)c1ccccc1)c1ccccc1 | 2.74
32 | C=CCn1c(SCC(=O)NC(=O)Cc2ccccc2)nc2ccccc2c1=O | 11.5
33 | O=C(c1ccc(Cl)c(S(=O)(=O)N2CCOCC2)c1)N1CCN(Cc2ccccc2)CC1 | 2.61
34 | COc1ccc(C(Nc2ccccn2)c2c(NC(=O)c3ccco3)sc(C)c2C)cc1 (stereo not drawn) | 0.957
35 | O=C(CNC(=O)C(c1ccccc1)c1ccccc1)OCC(=O)c1cccs1 | 3.61
36 | O=C(c1ccc(F)cc1)C1CCN(C(=O)Nc2ccccc2Cl)CC1 | 7.41
37 | CC1CN(C2CCCCC2)c2nc3c(c(=O)n(C)c(=O)n3C)n2C1 (stereo not drawn) | 0.489
38 | Cc1cc(=O)oc2cc(OC(C)C(=O)NC3(C#N)CCCCC3)ccc12 (stereo not drawn) | 1.47
39 | N#Cc1ccc(NC(=O)CCNC(=O)c2ccco2)cc1Cl | 14.1
40 | Cc1cc([N+](=O)[O-])ccc1NCc1ccccc1[N+](=O)[O-].O=C(O)C(=O)O | 11.5
41 | CC(C)(C)CC(C)(C)NCC(O)COc1c(F)cc(Br)cc1F.Cl (stereo not drawn) | -10
42 | OCCC1CN(Cc2cnc(-c3cccc4ccccc34)nc2)CCN1C1CCCCC1 (stereo not drawn) | 8.03
43 | CN(C1CCCCC1)S(=O)(=O)c1ccc(SCC(=O)NC(C)(C)C)nc1 | 17.1
44 | CC(=O)N(C)c1ccc(N=Cc2cc3c(cc2[N+](=O)[O-])OCO3)cc1 | 19.5

Row | Compound | hERG current change (%, negative = inhibition) at 1uM [%]
45 | Cc1nn(-c2nc3ccccc3[nH]2)c(N)c1-c1ccccc1 | 7.57
46 | CCOc1ccc(NC(=S)N2CCN(CCN3C(=O)c4cccc5cccc(c45)C3=O)CC2)cc1 | 8.64
47 | CCOC(=O)C(=Cc1ccc(OCc2ccc([N+](=O)[O-])cc2)c(OC)c1)C(=O)OCC | 15.7
48 | Cc1nc2c(Cl)cccc2[nH]1 | 3.38
49 | COc1ccc2oc(=O)cc(-c3cc4cccc(OC)c4o3)c2c1 | 13.2
50 | CN(C)c1ncccc1-c1nc2ccccc2s1 | 8.21
51 | O=C(O)c1ccc(Nc2nc3ccc(Cl)cc3[nH]2)cc1 | 16.4
52 | CCC(NC(=O)OC(C)(C)C)C(=O)Oc1ccc2c3c(c(=O)oc2c1)CCC3 (stereo not drawn) | 10.8
53 | CCOC(=O)C1CCCN(c2c(NCC3CCCN3CC)c(=O)c2=O)C1 (stereo not drawn) | 16.7
54 | O=C(NNC(=O)c1ccc(Cl)cc1Cl)c1ccncc1 | 11.3
55 | COc1ccc(N(C)S(=O)(=O)c2cccc(C(=O)Nc3ccc(N4CCOCC4)cc3)c2)cc1 | 3.27
56 | CN(Cc1ccccc1)C(NC(=O)c1ccccc1)C(Cl)(Cl)Cl (stereo not drawn) | 3.67
57 | CCOC(=O)c1ccc(-c2ccc3c(=O)c4ccccc4n(C)c3c2)cc1F | 14.2
58 | CSc1ccc(-c2nnn(Cc3ccccn3)n2)cc1 | 3.61
59 | O=C(CSCCO)Nc1cccc([N+](=O)[O-])c1 | 10
60 | Cc1cc(C(=O)Nc2ccccc2C(=O)O)ccc1NC(=O)COc1cccc([N+](=O)[O-])c1 | 14.4
61 | Cn1c(=O)c2c(nc(SCc3ccccc3F)n2C)n(C)c1=O | 7.45
62 | O=C(CNC(=O)c1ccco1)NCC(=O)OCc1ccccc1Cl | 4.73
63 | COc1cc(NC(=S)NC2CC(C)(C)NC(C)(C)C2)c(OC)cc1Cl | 13.2
64 | O=C(NCCCc1ccncc1)C1CCC(=O)N(CCc2cccc(F)c2)C1 (stereo not drawn) | -3.6
65 | CN(CC(=O)Nc1ccc(C#N)cc1)Cc1ccc(Cl)cc1Cl | -29.1
66 | CC(C)C1=CC(=NS(=O)(=O)c2cccc([N+](=O)[O-])c2)C=C(C(C)C)C1=O | 12.7

Row | Compound | hERG current change (%, negative = inhibition) at 1uM [%]
67 | O=C(NC1CCN(Cc2ccccc2)CC1)c1ccccc1OCc1ccccc1Cl | 7.01
68 | COc1ccc(NS(=O)(=O)c2ccc3c(c2)CCC(=O)N3)c(OC)c1 | 4.2
69 | COCCNC(=S)N/N=C/c1ccc(N2CCOCC2)cc1 | 9.23
70 | CCN(CC)S(=O)(=O)c1cc(C(=O)Nc2cc(C)[nH]n2)ccc1Cl | 4.18
71 | O=C(N/N=C/c1cccc([N+](=O)[O-])c1)c1cc(-c2ccccc2)nc2ccccc12 | 6.94
72 | COc1ccc(S(=O)(=O)Cc2ccc(C(=O)N3CCC(C(N)=O)CC3)o2)cc1 | 20.7
73 | CCN(C(=O)c1ccnc(C(C)(C)C)c1)c1ccccc1 | 1.64
74 | CCOC(=O)N/N=C(C)/C=C/c1ccccc1 | 12.4
75 | O=C(CSCc1ccco1)Nc1cc(C(F)(F)F)ccc1N1CCOCC1 | 16.6
76 | Cc1cc(=O)nc2c3ccccc3n(CC(=O)NCCCN3CCOCC3)n12 | 12
77 | C/C(Cn1nnc([N+](=O)[O-])n1)=N\NC(=O)c1ccccc1Cl | 13.5
78 | Cc1c(CCO)c(=O)oc2n[nH]c(-c3ccccc3)c12.Cl | 6.37
79 | CCOC(=O)C1CCN(Cc2cccc(OCc3ccccc3)c2)CC1.O=C(O)C(=O)O | -8.38
80 | CCc1nnc(NC(=O)C2CCCN2C(=O)Nc2ccc(C)cc2)s1 (stereo not drawn) | 8.89
81 | CCOc1ccc(C(=O)OCC(=O)Nc2cccc(S(=O)(=O)N3CCCC3)c2)cc1 | 5.6
82 | Cc1cc(C)nc(NC(=NCCc2c[nH]c3ccccc23)NC(=O)c2ccco2)n1 | 7.86
83 | O=C(O)CCS(=O)(=O)c1nc(-c2cccs2)cc(C(F)(F)F)n1 | -3.88
84 | CCOC(=O)c1c(NC(=O)Cc2cccs2)sc(C(=O)NC2CCCCC2)c1C | 14.3
85 | O=C(O)CNC(=O)c1ccc(OC(F)F)cc1 | 13.3
86 | CC(=O)NCCC(=O)Nc1nc2ccc(Oc3ccccc3)cc2s1 | 2.19
87 | O=[N+]([O-])c1cccc(-c2cc(C(F)(F)F)n3nc(-c4ccccc4)cc3n2)c1 | 10
